The list shows a part of the results, in another mix than the full data. The list includes weakly bound sequences.
Tests used:
Test in all cases: protein-binding microarray (PBM)
Conditions in all cases: PBM: ~300 nM protein, 6 mM HEPES pH 7.8, 80 mM KCl, 0.5 mM EDTA, 0.5 mM EGTA, 6% glycerol, 35 ng/ul poly-dIdC, 1% milk, 1 h, room temperature; Ap Aiptasia and Nv Nematostella (sea anemones) / Co Capsaspora / Aq Amphimedon (sponge) / Dm Drosophila / Hu human; RHD is the Rel homology domain; high values mean tight binding; most listed sequences are background and not binding sites; double strand, one strand shown
[1] = target: T1, GST-Ap-NF-kB RHD (UniProt A0A913YAJ5)
T1 sequence: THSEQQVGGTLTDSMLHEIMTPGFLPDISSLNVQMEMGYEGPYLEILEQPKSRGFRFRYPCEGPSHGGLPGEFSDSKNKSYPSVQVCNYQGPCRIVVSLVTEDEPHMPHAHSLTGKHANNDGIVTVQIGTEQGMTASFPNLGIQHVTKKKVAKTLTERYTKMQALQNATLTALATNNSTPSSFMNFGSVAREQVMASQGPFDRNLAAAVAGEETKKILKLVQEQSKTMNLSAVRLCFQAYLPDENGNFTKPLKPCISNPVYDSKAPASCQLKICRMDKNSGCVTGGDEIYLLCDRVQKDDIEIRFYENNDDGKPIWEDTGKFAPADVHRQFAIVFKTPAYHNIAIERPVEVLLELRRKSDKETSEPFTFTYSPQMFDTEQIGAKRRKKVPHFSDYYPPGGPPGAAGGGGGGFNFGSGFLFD

[2] = target: T2, GST-Nv-NF-kB (Cys allele) (UniProt E5G601)
T2 sequence: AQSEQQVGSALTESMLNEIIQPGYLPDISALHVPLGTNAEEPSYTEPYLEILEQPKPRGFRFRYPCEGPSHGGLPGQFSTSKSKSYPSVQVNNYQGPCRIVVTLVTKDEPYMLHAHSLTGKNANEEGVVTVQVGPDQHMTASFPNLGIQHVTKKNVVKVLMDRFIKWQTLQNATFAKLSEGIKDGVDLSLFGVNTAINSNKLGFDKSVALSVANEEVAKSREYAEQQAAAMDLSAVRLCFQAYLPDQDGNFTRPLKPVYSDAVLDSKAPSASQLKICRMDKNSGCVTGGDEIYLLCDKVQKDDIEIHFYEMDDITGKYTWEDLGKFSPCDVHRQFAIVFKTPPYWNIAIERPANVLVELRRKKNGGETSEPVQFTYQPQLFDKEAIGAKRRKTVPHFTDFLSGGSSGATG

[3] = target: T3, GST-Co-NF-kB (UniProt F1ARL5)
T3 sequence: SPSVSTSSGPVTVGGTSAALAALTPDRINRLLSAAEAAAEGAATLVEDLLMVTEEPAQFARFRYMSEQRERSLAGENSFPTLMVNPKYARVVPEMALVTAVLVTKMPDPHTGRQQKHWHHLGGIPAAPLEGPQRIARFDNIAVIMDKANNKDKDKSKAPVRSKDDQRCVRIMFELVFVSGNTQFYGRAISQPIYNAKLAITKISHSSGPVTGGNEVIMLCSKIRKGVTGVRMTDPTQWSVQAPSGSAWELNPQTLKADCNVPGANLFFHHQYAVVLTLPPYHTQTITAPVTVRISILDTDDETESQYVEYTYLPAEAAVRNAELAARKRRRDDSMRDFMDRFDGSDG

[4] = target: T4, GST-Dm-Relish (UniProt Q94527)
T4 sequence: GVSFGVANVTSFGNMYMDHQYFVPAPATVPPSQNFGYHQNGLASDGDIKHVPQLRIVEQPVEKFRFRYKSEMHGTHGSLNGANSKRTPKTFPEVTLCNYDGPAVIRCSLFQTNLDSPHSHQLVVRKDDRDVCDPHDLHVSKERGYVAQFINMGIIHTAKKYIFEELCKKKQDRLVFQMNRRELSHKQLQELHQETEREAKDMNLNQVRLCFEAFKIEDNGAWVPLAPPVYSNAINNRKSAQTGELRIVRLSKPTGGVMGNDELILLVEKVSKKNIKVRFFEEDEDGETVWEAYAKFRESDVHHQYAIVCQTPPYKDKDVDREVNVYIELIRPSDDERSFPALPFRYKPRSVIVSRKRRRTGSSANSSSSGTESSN

[5] = target: T5, GST-Aq-NF-kB (UniProt A9Y5G7)
T5 sequence: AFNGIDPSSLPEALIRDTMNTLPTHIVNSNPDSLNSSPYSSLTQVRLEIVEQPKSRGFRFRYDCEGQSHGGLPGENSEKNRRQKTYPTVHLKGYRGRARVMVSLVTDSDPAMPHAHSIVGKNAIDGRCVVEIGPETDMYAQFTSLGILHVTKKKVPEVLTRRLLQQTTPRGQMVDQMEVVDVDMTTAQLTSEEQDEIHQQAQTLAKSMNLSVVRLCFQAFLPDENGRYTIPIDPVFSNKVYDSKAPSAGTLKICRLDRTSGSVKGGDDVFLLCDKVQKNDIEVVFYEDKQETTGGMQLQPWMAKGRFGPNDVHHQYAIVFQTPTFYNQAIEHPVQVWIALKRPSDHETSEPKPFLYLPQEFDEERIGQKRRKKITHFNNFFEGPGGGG

Sequence	binding signal [1] [z-score]	binding signal [2] [z-score]	binding signal [3] [z-score]	binding signal [4] [z-score]	binding signal [5] [z-score]
CCGATTAACATCAGGAAATTGGATGATGTTAATCGGGTCTTGATTCGCTTGACGCTGCTG	-0.435	0.397	0.21	-0.416	-0.289
CCGATTAACATCAACATAGAGTATGATGTTAATCGGGTCTTGATTCGCTTGACGCTGCTG	-0.417	-0.365	0.204	-0.751	-0.601
CCGATTAACATCAATTCTTTCACTGATGTTAATCGGGTCTTGATTCGCTTGACGCTGCTG	-0.301	0.0156	-0.0258	-0.0991	-0.243
CCGATTAACATCAACTGCTCACATGATGTTAATCGGGTCTTGATTCGCTTGACGCTGCTG	-0.324	-1.02	-0.347	-1.02	-0.58
CCGATTAACATCATTAGATGGCTTGATGTTAATCGGGTCTTGATTCGCTTGACGCTGCTG	-0.235	-0.676	-0.178	-1.11	-0.357
CCGATTAACATCAACCTGAGCGGTGATGTTAATCGGGTCTTGATTCGCTTGACGCTGCTG	0.242	0.215	0.823	0.769	0.0675
CCGATTAACATCACTCGCAATTGTGATGTTAATCGGGTCTTGATTCGCTTGACGCTGCTG	-0.331	-0.022	0.365	0.814	-0.479
CCGATTAACATCATAGGCGTAGTTGATGTTAATCGGGTCTTGATTCGCTTGACGCTGCTG	-0.0493	0.032	-0.226	-0.515	-0.189
CCGATTAACATCATAAAGATTTATGATGTTAATCGGGTCTTGATTCGCTTGACGCTGCTG	-1.41	-1.12	-1.59	0.14	-0.253

Reference: PMC5700166
